According to PMC4300205, “Human Cerberus Prevents Nodal-Receptor Binding, Inhibits Nodal Signaling, and Suppresses Nodal-Mediated Phenotypes” (PLoS ONE, 2015):
Like-named read-outs stand apart in the source and are kept apart here. These are yes or no findings as the source states them, for the method shown. Some binding calls cover weakened binding; strength is not graded here. For part of these data: Tags and fused reporters may be left off the sequences shown. Values belong to the molecule of their own block, whether it stands above or below them.

Protein sequences, listed by entry. Tags and fused reporters are not part of them. Residues count along the entry.
UniProt P0CG37, residues 26-158: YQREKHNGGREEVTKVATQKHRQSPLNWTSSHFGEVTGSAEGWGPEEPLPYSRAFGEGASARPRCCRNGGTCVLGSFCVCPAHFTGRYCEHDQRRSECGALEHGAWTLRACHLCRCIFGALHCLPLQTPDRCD
UniProt P13385, residues 31-151: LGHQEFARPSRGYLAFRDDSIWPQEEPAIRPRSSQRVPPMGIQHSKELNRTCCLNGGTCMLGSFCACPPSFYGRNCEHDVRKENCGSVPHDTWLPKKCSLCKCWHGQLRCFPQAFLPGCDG
UniProt P08476, residues 311-426: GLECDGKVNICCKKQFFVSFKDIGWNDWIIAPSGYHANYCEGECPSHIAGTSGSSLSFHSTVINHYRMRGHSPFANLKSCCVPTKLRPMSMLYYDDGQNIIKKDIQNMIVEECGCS
UniProt O14793, residues 267-375: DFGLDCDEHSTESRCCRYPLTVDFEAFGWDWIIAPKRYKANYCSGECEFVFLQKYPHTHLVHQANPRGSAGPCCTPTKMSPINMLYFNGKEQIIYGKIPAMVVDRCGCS

Tests used:
[1] = molecular target: T1, human ALK4-hIgg-Fc (human) (UniProt P36896); assay: SPR; Cripto-1 and Nodal-Cripto-1 complexes tested on ALK4 and ALK7, purified human proteins (S1 Fig.; manuscript in preparation); both purified
T1 sequence: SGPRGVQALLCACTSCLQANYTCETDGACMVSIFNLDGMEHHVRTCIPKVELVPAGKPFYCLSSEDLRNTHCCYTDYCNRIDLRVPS

ALK7-Fc (human) [2] = molecular target: T2, ALK7-Fc (human) (UniProt Q8NER5); assay: as above
T2 sequence: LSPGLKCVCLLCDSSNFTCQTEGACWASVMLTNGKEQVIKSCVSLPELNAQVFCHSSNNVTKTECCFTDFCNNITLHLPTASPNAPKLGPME

[3] = molecular target: T3, rat ALK7-Fc (RnD systems) (rat) (UniProt P70539); assay: SPR; ALK4-Fc and rat ALK7-Fc immobilized on an SPR sensor chip (captured by anti-human IgG (Fc) antibody, CM5); 80 nM Fc free Cripto-1 injected; 25°C; HBS-EPS (0.01 M HEPES, 0.5 M NaCl, 3 mM EDTA, 0.005% Tween 20, pH 7.4); both purified
T3 sequence: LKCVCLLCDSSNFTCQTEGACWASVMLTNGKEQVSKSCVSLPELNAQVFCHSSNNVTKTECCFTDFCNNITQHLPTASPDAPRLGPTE

[4] = molecular target: T1, human ALK4-hIgg-Fc (human); assay: as above
Human Cerberus-hIgg-Fc [5] = molecular target: T4, Human Cerberus-hIgg-Fc (human, UniProt O95813 18-267); assay: SPR; Cerberus-Fc immobilised; different TGFß family ligands injected at 80 nM, 40 ul/min; both purified
T4 construct: signal peptide in the construct; also called Cerberus-Fc; full-length Cerberus-Fc; source: CHO cells, purified from conditioned medium (Protein A, SEC); not shown: Fc (human IgG1), C-terminal, kept
T4 sequence (looked up): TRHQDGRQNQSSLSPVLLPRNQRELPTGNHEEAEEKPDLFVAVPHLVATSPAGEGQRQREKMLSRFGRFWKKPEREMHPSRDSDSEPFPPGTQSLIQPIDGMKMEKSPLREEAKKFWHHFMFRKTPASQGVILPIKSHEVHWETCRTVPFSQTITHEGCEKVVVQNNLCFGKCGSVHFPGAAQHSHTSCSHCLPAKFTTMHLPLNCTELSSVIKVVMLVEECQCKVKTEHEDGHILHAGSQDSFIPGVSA

Human Cerberus-hIgg-Fc [6] = molecular target: T4, Human Cerberus-hIgg-Fc; assay: as above; remark: listed apart in the source
ALK7-Fc (human) [7] = molecular target: T2, ALK7-Fc (human); assay: SPR; equal amounts (by response units) of Cripto-1-Fc, Cryptic-Fc, ALK4-Fc and ALK7-Fc immobilised; single injection of 80 nM Nodal; both purified
human Cryptic-hIgg-Fc = molecular target: T5, human Cryptic-hIgg-Fc (human, UniProt P0CG37 26-158); assay: as above
T5 construct: signal peptide in the construct; human Cryptic (1-158), joined to human IgG1 Fc by a 22 amino acid linker with a TEV site, a glycine/serine rich region and a FLAG-tag; Synthetic gene from GeneArt; also called Cryptic-Fc; source: CHO cells, purified from conditioned medium (Protein A, SEC)

- binding [1]: no binding
- binding (ALK7-Fc (human) [2]): no binding
Molecule: Cripto-1-Fc (from UniProt P13385 31-151) (Fc fusion)

- binding [3]: no binding (tested: 80 nM)
- binding [4]: no binding (tested: 80 nM)
Molecule: Fc free Cripto-1 (from UniProt P13385 31-151) (domain or fragment)

- binding (Human Cerberus-hIgg-Fc [5]): no binding (tested: 80 nM)
Molecule: Recombinant Activin A (from UniProt P08476 311-426) (ligand)

- binding (Human Cerberus-hIgg-Fc [5]): no binding (tested: 80 nM)
Molecule: Recombinant GDF-8 (from UniProt O14793 267-375) (ligand)

- binding (Human Cerberus-hIgg-Fc [6]): binds weakly
B1: Recombinant BMP-2 (ligand, UniProt P12643 283-396)
chain: QAKHKQRKRLKSSCKRHPLYVDFSDVGWNDWIVAPPGYHAFYCHGECPFPLADHLNSTNHAIVQTLVNSVNSKIPKACCVPTELSAISMLYLDENEKVVLKNYQDMVVEGCGCR

- binding (Human Cerberus-hIgg-Fc [6]): binds weakly
B2: Recombinant GDF-11 (ligand, human, UniProt O95390 299-407, looked up)
chain: NLGLDCDEHSSESRCCRYPLTVDFEAFGWDWIIAPKRYKANYCSGQCEYMFMQKYPHTHLVQQANPRGSAGPCCTPTKMSPINMLYFNDKQQIIYGKIPGMVVDRCGCS
notes: GDF-11, recombinant; source: bought: R&D Biosystems or Life Technologies

- binding (Human Cerberus-hIgg-Fc [6]): no binding (tested: 80 nM)
B3: Recombinant BMP-9 (ligand, UniProt Q9UK05 320-429)
chain: SAGAGSHCQKTSLRVNFEDIGWDSWIIAPKEYEAYECKGGCFFPLADDVTPTKHAIVQTLVHLKFPTKVGKACCVPTKLSPISVLYKDDMGVPTLKYHYEGMSVAECGCR

- binding (ALK7-Fc (human) [7]): no binding (tested: 80 nM)
- binding (human Cryptic-hIgg-Fc): binds weakly
B4: recombinant human Nodal (ligand, UniProt Q96S42 238-347, looked up)
chain: HHLPDRSQLCRKVKFQVDFNLIGWGSWIIYPKQYNAYRCEGECPNPVGEEFHPTNHAYIQSLLKRYQPHRVPSTCCAPVKTKPLSMLYVDNGRVLLDHHKDMIVEECGCL
notes: Nodal, human, recombinant (RnD Systems); source: bought: RnD Systems

- binding (Human Cerberus-hIgg-Fc [6]): no binding (tested: 80 nM)
B5: Recombinant BMP-4 (ligand, UniProt P12644 293-408)
chain: SPKHHSQRARKKNKNCRRHSLYVDFSDVGWNDWIVAPPGYQAFYCHGDCPFPLADHLNSTNHAIVQTLVNSVNSSIPKACCVPTELSAISMLYLDEYDKVVLKNYQEMVVEGCGCR
